Measured values from PubChem BioAssay AID602332 (National Center for Advancing Translational Sciences (NCATS), 2012).
Where “and” joins values, the source holds several entries; their conditions need not be identical. Equal entries are not always repeated. Screen size: about 420,000 compounds; about 75 (0.02%) were called active. The call rests on the fitted dose curve; in most records, active means well fitted activation curve with a large enough effect; inconclusive means small, poorly fitted or top-dose-only effect; inactive means no such curve, though single readings can be large or run the other way. Only a part is listed here, and it is no random draw.

Test: qHTS for Inducers of the Endoplasmic Reticulum Stress Response (ERSR) in Human Glioma: qHTS; further: nearly all actives have a fitted effect of over 35% in size; on activation: % of control where 0% means no effect
Conditions: U87-MG GRP78 promoter luciferase reporter, 16 h; activation: active compounds read high
Description: Primary protein unfolding takes place for many diseases, including diabetes and hypoxia, , and triggers a reaction in the cells called ER stress response (ERSR). ). ERSR is designed as a repair mechanism, but ultimately leads to cell death via apoptosis if conditions triggering protein unfolding persist (1). The molecular clue to ERSR activation is the enhancement of the expression of key molecular chaperones, including the glucose regulated protein (GRP) 78. GRP78 is the main sensor for protein folding and the main actuator of the ERSR.
In a collaboration between the Southern Research Institute and the NIH Chemical Genomics Center, a cell based screen was developed that reliably uses GRP78 as a sensor to identify small molecules as inducers of ERSR. In resting conditions, GRP78 binds proteins and acts as a natural repressor. Once unfolded proteins are present in the ER, GRP78 releases some of the repressors and binds to the unfolded proteins. The release of the repressors executes the ERSR program. Using a human glioma cell line in a miniaturized, luminescent format, a high-throughput screen was developed to identify actuators of the ERSR.
(1) Soboloff, J. and S. A. Berger (2002). "Sustained ER Ca2+ depletion suppresses protein synthesis and induces activation-enhanced cell death in mast cells." J Biol Chem 277(16): 13812-20.
NIH Chemical Genomics Center [NCGC]
NIH Molecular Libraries Probe Centers Network [MLPCN]
Assay Submitter (PI): Maurizio Grimaldi, Southern Research Institute
Stable transfected human glioma cell line, U87-MG, are dispensed at density 1000 cells/well into Greiner white solid bottom 1536-well assay plates. Compounds are transferred via Kalypsys pin tool equipped with 1536-pin array (10nl slotted pins, V&P Scientific, San Diego, CA). The assay plates will be incubated for 16 hours and developed by adding appropriate quantities of the Promega Bright Glo reagent. The plates will be incubated at room temperature for 10 minutes prior to being transferred into a ViewLux high-throughput CCD imager (PerkinElmer), wherein end-point measurements of luminescence are acquired.
Potency means the concentration at half of the fitted maximal effect.

Compound	Potency	activation
COc1cc(C2CC(=O)Oc3ccc(O)cc32)cc(OC)c1OC (centres undefined)	active: 50.1 µM	
COc1ccc(C(=O)Nc2ccccc2C(=O)N/N=C/c2ccc(O)c(OC)c2)cc1		inactive: -15.2%
COCCCn1cnc2c(c1=O)c1nc3ccccc3nc1n2-c1ccccc1		inactive: -18.5%
COCCn1c(C)cc(C(=O)COC(=O)c2cccc(O)c2)c1C		inactive: -13.8%
OCCN1CCN(CC/C=C2\c3ccccc3Sc3ccc(C(F)(F)F)cc32)CC1		inactive: -4.57%
CCN(CC)S(=O)(=O)c1cc(NC(=O)Cn2ncc(Cl)c(Cl)c2=O)ccc1C		inactive: -17.9%
CCOC(=O)N1CCN(/[N+]([O-])=N/Oc2ccc([N+](=O)[O-])cc2[N+](=O)[O-])CC1		inactive: -12.1% and inactive: -1.5% and inactive: -14.5%
Cc1ccc(C(=O)n2nc(-c3cccnc3)nc2N)cc1		inactive: -15.3%
CC(C)(C)c1ccc(S(=O)(=O)/C=C\C#N)cc1		inactive: -9.78%
Cc1noc2ncnc(Sc3c(Cl)cccc3Cl)c12		inactive: -18.6%
CCOC(=O)/C(=C\c1ccc(OC(F)F)cc1)C1=Nn2c(nnc2-c2ccc(Cl)cc2)SC1		inactive: -15.8%
CN(C)c1ccc(Nc2nc(-c3cccnc3)cs2)cc1		inactive: -14.1%
O=C(Nc1ccc(NC(=O)C2CCCCC2)cn1)c1ccco1		inactive: -16.9%
CCOc1ccc(-c2cn3ccccc3n2)cc1		inactive: -15.1%
Cc1ccccc1CNc1ncnc2c1ncn2C1OC(CO)C(O)C1O (centres undefined)		inactive: 13.6%
COc1ccc2c(c1)c(CC(=O)O)c(C)n2C(=O)c1ccc(Cl)cc1		inactive: -2.82% [middle of 7 runs]
O=C(N/C(=C\c1ccccc1)C(=O)N1CCCCC1)c1ccco1		inactive: -3.67%
COc1cc(/C=C/c2cc(C(F)(F)F)[nH]c(=O)n2)cc(OC)c1OC		inactive: -16.9%
COc1cccc(-c2cc(=O)c3ccccc3o2)c1N		inactive: -4.42% [middle of 4 runs]
CCCCCCCCCCCCCCC[C@H](O)[C@H](N)CO		inactive: -4.84% and inactive: -2.95% and inactive: -13%
COC(=O)CNC(=O)C(Cc1ccccc1)NS(=O)(=O)c1ccc2c(c1)c(=O)n(C)c(=O)n2C (centres undefined)		inactive: -0.581%
CN1CCN(CCCN2c3ccccc3Sc3ccc(C(F)(F)F)cc32)CC1		inactive: -6.31% [middle of 9 runs]
COc1ccc(/C=C/C(=O)Nc2ccccc2C(=O)O)cc1OC		inactive: -7.58% and inactive: -10.3% and inactive: -11.5%
COC1=C2C[C@H](C)C[C@H](OC)[C@H](O)[C@@H](C)/C=C(/C)[C@H](OC(N)=O)[C@@H](OC)/C=C\C=C(\C)C(=O)NC(=CC1=O)C2=O		inactive: -0.197%
Oc1ccc(/C=C/c2cc(O)cc(O)c2)cc1		inactive: -3.38% [middle of 5 runs]
COc1ccc(/C=C/C(=O)Nc2ccccc2C(=O)O)cc1		inactive: -12%
COc1ccc(OCc2cccc(C(=O)Nc3cc(C)on3)c2)cc1		inactive: -12.7%

Compound	Potency	activation
COc1ccccc1/C=C/C1(C(=O)NC2CCCC2)CC(=O)N1c1ccc(F)cc1 (centres undefined)		inactive: -17.2%
O=C(Nc1ccccc1)c1cc([N+](=O)[O-])ccc1Cl		inactive: 1.16% [middle of 4 runs]
CN(C(=O)COC(=O)c1nc(Cl)c(Cl)c(Cl)c1Cl)C1CCS(=O)(=O)C1 (centres undefined)		inactive: -14.7%
O=C(/C=C\Nc1cccc(F)c1)c1ccc2c(c1)OCO2		inactive: -14.9%
C/C(=N\NC(=O)c1ccc(Cl)cc1)c1cccs1		inactive: -14.6%
COc1cccc(C(=O)Nc2nc3ccccc3[nH]2)c1		inactive: -15.6%
CC1C/C(=C/c2ccccn2)C(=O)/C(=C/c2ccccn2)C1 (centres undefined)		inactive: -16.4%
Cc1[nH]c2ccccc2c1C(O)CN1CCN(c2cccc(C(F)(F)F)c2)CC1 (centres undefined)		inactive: -18.8%
C=C1C(=O)O[C@@H]2[C@@H]1CC/C(C)=C\CC[C@@]1(C)O[C@H]21		inactive: -11.5%
COc1cc(-c2noc(C)c2C#CC2(O)CCCCC2)cc(OC)c1OC		inactive: -3.15%
NC1=NN=C(c2ccc3c(c2)OCCO3)CS1		inactive: -14.2%
Cn1c(-c2ccccc2)cnc1SCC(=O)N1CCCCC1		inactive: -14.7%
COc1ccc(NC(=O)Cn2ncc(Cl)c(Cl)c2=O)cc1S(=O)(=O)N1CCOCC1		inactive: -15.4%
CCN(CC)CCC(c1cc(OC)c(OC)c(OC)c1)c1c(OC)cc(OC)c2c(C)cc(=O)oc12 (centres undefined)		inactive: -4.82%
Cc1ccccc1CS(=O)(=O)c1ncc(Cl)c(C(=O)Nc2ccc(F)cc2)n1		inactive: -15%
CCCCCN(CCCCC)C(=O)[C@H](CCC(=O)O)NC(=O)c1ccc(Cl)c(Cl)c1		inactive: -3.21%
O=C(c1ccc(Cl)cc1)N1CCCCC(Sc2nnc(-c3ccc4c(c3)OCO4)o2)C1=O (centres undefined)		inactive: -13.8%
Cc1[nH]c2ccccc2c(=O)c1C(=O)/C=C/c1ccccc1		inactive: -15.3%
c1ccc(-c2noc(-c3cccnc3)n2)nc1		inactive: -12.3%
CN(C(=O)c1ccco1)c1nc2c(s1)CCCC2		inactive: -12.2%
COc1ccc(-c2ccoc2)cc1C1C2C=CCC(C)C2C(=O)N1Cc1ccccc1 (centres undefined)		inactive: -4.46%
CCc1ccc(OCC(=O)NC(NC(=S)Nc2ccc(C)cc2C)C(Cl)(Cl)Cl)cc1 (centres undefined)		inactive: -14.7%
Cc1cc(=O)[nH]c(-c2ccccc2)n1		inactive: -19.2%
CCCCCCCCCCCCCCCC(O)C(N)CO (centres undefined)		inactive: -1.19%
C=CC[C@H](CC(=O)OC(C)(C)C)C(=O)OC[C@H]1CCCN1C(=O)[C@H](CC=C)CC(=O)NCCO		inactive: -3.44%
Cc1ccccc1CN1C(=O)c2ccccc2Sc2ccc(C(=O)O)cc21		inactive: 3.99%
C=CCc1ccc(OCc2ccc(C(=O)OC)o2)c(OC)c1		inactive: -12.4%
